Measured values: article PMC12040169 (PLOS Biology, 2025)
This is one part of the list.

test system: T1, C. trachomatis L2/434/Bu expressing GFP (CTL2-GFP); design: species or system HeLa; C. trachomatis total inclusion area by high-content imaging, normalised to DMSO; details: total inclusion area; 28.5 h, 10 µM; inhibitor
T1 construct: L2/434/Bu GFP intracellular growth in HeLa cells
Outline: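 Bulk GFP and resorufin signals were read first. Wells were then fixed, stained with Hoechst and imaged to detect GFP inclusions and host nuclei. MICs followed the previously described calculation.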

| Structure (SMILES) | % of control remaining |
| --- | --- |
| COc1ccc(C(=O)Nc2noc3nc(C)ccc23)cc1OC [CBK287832] | 96.9461 |
| CCCCNc1cc(N2CCOC(c3cnn(CC)c3)C2)nc(N)n1 (stereo not shown) [CBK305423] | 110.004 |
| NC(=O)N/N=C/COc1cccc(C(F)(F)F)c1 [CBK022736] | 66.9072 |
| CCNC(=O)C1(Cc2ccccc2-c2cccnc2)CCOCC1 [CBK285218] | 79.8475 |
| OCc1ccc(-c2nccnc2NCC2CC2)cc1 [CBK037334] | 121.563 |
| Nc1ncc(-c2cncnc2)nc1NCc1ccccc1 [CBK063584] | 92.7609 |
| COCCNC(=O)Nc1ccc2nc(-c3ccccn3)c(-c3ccccn3)nc2c1 [CBK265151] | 100.212 |
| CN1CCN(C)C(COc2ncccc2C(F)(F)F)C1 (stereo not shown) [CBK113458] | 102.891 |
| Cc1ccc(OCCn2c(SCCC(=O)O)nc3ccccc32)cc1 [CBK262561] | 109.733 |
| Nc1nc(OCc2ccncc2)cnc1-c1ccc(OC(F)(F)F)cc1 [CBK145121] | 95.9721 |
| O=C(NCCCn1cccn1)N1CCCN(Cc2ccc(Cl)cc2)CC1 [CBK305447] | 58.5869 |
| COc1cccc(CC(=O)Nc2nc(Cc3n[nH]c(=S)n3C)cs2)c1 [CBK296634] | 86.2035 |
| CC(=O)Nc1ccc(-c2ccc(C(=O)NCCc3ccc(O)cc3)cn2)cc1 [CBK158840] | 89.6386 |
| CCOc1ccccc1Cn1c2ccccc2c2nc3ccccc3nc21 [CBK266323] | 105.905 |
| Cc1ccc(CNC(Cc2c[nH]c3ccccc23)C(=O)O)cc1 (stereo not shown) [CBK287145] | 108.809 |
| Cc1c(C(=O)N2CC(n3cc(C(C)O)nn3)C2)sc2ccc(F)cc12 (stereo not shown) [CBK305446] | 69.2695 |
| N#CCCNS(=O)(=O)c1ccc(OC(F)(F)F)cc1 [CBK043560] | 93.2729 |
| Cc1cc(C(=O)N2CCC(Oc3nccn(Cc4ccc(S(C)(=O)=O)cc4)c3=O)CC2)ccc1Cl [CBK161883] | 41.4232 |
| O=C(Cc1c[nH]cn1)N1CCC2(CCN(Cc3ccccc3)C2)C1 (stereo not shown) [CBK137147] | 125.707 |
| O=CN1CCc2c([nH]c3ccc(F)cc23)C12CCN(Cc1cccc(Oc3ccc(F)cc3)c1)CC2 [CBK040388] | 103.338 |
| Cc1ncsc1C(=O)N1CCCCC1c1nc2ccccc2[nH]1 (stereo not shown) [CBK283531] | 80.9995 |
| CCCC/C=C/c1cnc(N)c(-c2ccc(CCC(=O)O)cc2)n1 [CBK064127] | 132.534 |
| COc1ccc(OC(=O)c2cccc(F)c2)c(C(C)=O)c1 [CBK088044] | 95.6406 |
| CS(=O)(=O)N1CCC(C(=O)NC(c2ccccc2)c2cnccn2)CC1 (stereo not shown) [CBK059901] | 99.3068 |
| CC(=O)Nc1cccc(-c2ccc(Nc3cccnc3)nc2)c1 [CBK037703] | 135.062 |
| CS(=O)(=O)N1CC2(CCN(CCc3ccc(F)cc3)CC2)c2ccccc21 [CBK084103] | 97.2991 |

| Structure (SMILES) | % of control remaining |
| --- | --- |
| O=C(c1ccc(-c2ccoc2)nc1)N1CCCC1 [CBK156284] | 101.473 |
| Cc1ccc2nc(-c3ccncc3)cc(C(=O)Nc3ccc(C(F)(F)F)cc3)c2c1 [CBK267732] | 91.9854 |
| O=c1c2c3c(sc2nc(SCc2nc4ccccc4[nH]2)n1Cc1ccco1)CCC3 [CBK268306] | 87.4197 |
| Oc1nc(O)c2c3c(n(CCn4ccnc4)c2n1)CCCC3 [CBK024380B] | 75.2899 |
| Cc1nn(C)cc1S(=O)(=O)N1CCCC(c2cccc(Cc3ccc(Cl)cc3)n2)C1 (stereo not shown) [CBK286506] | 60.5472 |
| COc1ccccc1CNc1ncnc2[nH]ncc12 [CBK288100] | 58.6112 |
| CCCCOc1ccc(Oc2ncc(C(F)(F)F)cc2Cl)cc1 [CBK161629] | 110.48 |
| C(=N\c1cccc2c(/N=C/c3c[nH]c4ccccc34)cccc12)/c1c[nH]c2ccccc12 [CBK260887] | 85.0889 |
| COc1ccc2[nH]cc(CCNC(=O)c3ccccn3)c2c1 [CBK115866] | 103.343 |
| COCc1cccc(Nc2ncnc3c2cnn3CCC#N)c1 [CBK305983] | 59.8376 |
| Cn1cc(C(=O)CCC(=O)NC2CCCN(c3ncccn3)C2)cn1 (stereo not shown) [CBK305480] | 52.6024 |
| Cc1csc(C(Cc2cccs2)NC(=O)CN2CCCC2=O)n1 (stereo not shown) [CBK284691] | 84.5827 |
| N#CC(NS(=O)(=O)c1ccc(OC(F)(F)F)cc1)c1ccccc1 (stereo not shown) [CBK043714] | 117.949 |
| Nc1nc(C2CC(O)C2)cc(N2CCC(Oc3ccccc3Cl)CC2)n1 (stereo not shown) [CBK307392] | 56.341 |
| O=C(CC1C(=O)N(Cc2ccccc2)C(=S)N1Cc1ccccc1)Nc1ccccc1 (stereo not shown) [CBK263871] | 94.9651 |
| Cc1c(C(=O)N2CCCC(c3cc4ncccc4[nH]3)C2)cnn1C (stereo not shown) [CBK283420] | 110.307 |
| COc1ccccc1CN(C)C(C)C(=O)Nc1sccc1C(N)=O (stereo not shown) [CBK306466] | 62.6314 |
| Cc1nn(C)c(Cl)c1S(=O)(=O)Nc1cccc(-c2cnco2)c1 [CBK067107] | 56.2421 |
| COC(=O)C1CC2CCC1(C)CC21NC(=O)c2ccccc2N1 (stereo not shown) [CBK284440] | 40.4927 |
| Cc1ccccc1OC(C)C(=O)NCCCN1CCOCC1 (stereo not shown) [CBK268628] | 93.3032 |
| COc1ccccc1CNC(=O)CCn1ccc2ccncc21 [CBK282229] | 104.366 |
| c1ccc2nc(N3CCCC3)c(OCc3ccsc3)nc2c1 [CBK115819] | 109.739 |
| COc1ccc(C)cc1S(=O)(=O)n1ccc2c(CN3CCC(N)CC3)cccc21 [CBK113312T] | 11.7813 |
| CCNC(=O)c1ccc(-c2ccc(OC(F)(F)F)cc2)nc1 [CBK156230] | 106.835 |
| O=C(Nc1cccnc1)C1c2ccccc2Oc2ccccc21 [CBK263129] | 102.353 |
| c1ccc(Oc2cccc(OCCCCN3CCNCC3)c2)cc1 [CBK266027G] | 120.226 |
